The list shows a part of the results. At the low end of the ranking the order means little.
The sequences below were run against T1, ETS1 (UniProt P14921) (assay: custom PBM). Conditions: custom protein-binding microarray; buffer, salt, pH and temperature not stated; high values mean tight binding; double strand, one strand shown.
T1 sequence: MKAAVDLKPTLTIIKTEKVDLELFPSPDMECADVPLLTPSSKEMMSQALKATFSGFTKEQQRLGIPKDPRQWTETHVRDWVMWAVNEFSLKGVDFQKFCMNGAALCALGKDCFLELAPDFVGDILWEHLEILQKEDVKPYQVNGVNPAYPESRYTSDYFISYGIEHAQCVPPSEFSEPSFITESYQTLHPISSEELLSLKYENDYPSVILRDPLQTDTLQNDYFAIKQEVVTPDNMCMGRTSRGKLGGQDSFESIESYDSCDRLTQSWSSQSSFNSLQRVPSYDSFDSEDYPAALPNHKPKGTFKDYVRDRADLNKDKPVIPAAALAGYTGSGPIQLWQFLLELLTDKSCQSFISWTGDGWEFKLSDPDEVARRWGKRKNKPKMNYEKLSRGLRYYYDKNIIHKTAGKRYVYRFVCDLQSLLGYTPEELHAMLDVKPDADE

Row | Sequence | binding signal (log fluorescence intensity)
1 | TGTCGGGTACGGGAATGTAGATCACGTGAATGAAAAGTCTTGATTCGCTTGACGCTGCTG | 8.03
2 | CTGGGACTTGACCCAATTCTGCCACGTGGGTCGTTTGTCTTGATTCGCTTGACGCTGCTG | 8.19
3 | CAGCATAGGATTTCTTCCCTGAAGCAATTGATAACCGTCTTGATTCGCTTGACGCTGCTG | 8.31
4 | CACAATTTTTACAGGAATGTAGCACGCGTAACTCCTGTCTTGATTCGCTTGACGCTGCTG | 8.26
5 | TGTCGGGTAAGGGAATGTAGATCGCGTGAATGAAAAGTCTTGATTCGCTTGACGCTGCTG | 8.24
6 | AACTGACTTATATATGCGAATGCACATGAATAGACCGTCTTGATTCGCTTGACGCTGCTG | 8.32
7 | GCTGCTGCGGTGCATAACCCACCGGATGTGACCCCGGTCTTGATTCGCTTGACGCTGCTG | 10.4
8 | TCCGGCTACCAGCTCAACCCACTTCAGGCCTTGTAGGTCTTGATTCGCTTGACGCTGCTG | 8.14
9 | TCCGGCTACCAGCTCCACCCGCTTCAGGCCTTGTAGGTCTTGATTCGCTTGACGCTGCTG | 8.15
10 | GGAAAAAGGCCCAGGGTTACACCGGAAGTGGGCTTAGTCTTGATTCGCTTGACGCTGCTG | 11.8
11 | GGAAAAAGGCCCAGGGTAACACCGGAAGTGTGCTTAGTCTTGATTCGCTTGACGCTGCTG | 11.7
12 | CGGAACTGTCGTAAACGTCGGATATCCGGTTCTTCTGTCTTGATTCGCTTGACGCTGCTG | 11.8
13 | GGACAAAGGCCCAGGGTAACACCGGAAGTGGGCTTAGTCTTGATTCGCTTGACGCTGCTG | 12
14 | GGAAAAAGGCCCAGGGTAACACCGGAAGGGGGCTTAGTCTTGATTCGCTTGACGCTGCTG | 9.53
15 | GATTAACTTCTGCCCTTATTCGCACGTGCCATAACAGTCTTGATTCGCTTGACGCTGCTG | 8.07
16 | TGCGGCTACCAGCTCCACCCACTTCAGGCCTTGTAGGTCTTGATTCGCTTGACGCTGCTG | 8.24
17 | GCTGCTGCGGTGCATACCCCACCGGATGTGAGCCCGGTCTTGATTCGCTTGACGCTGCTG | 9.89
18 | CACAATTTTTACAGTAATGTAGCAGGCGTAACTCCTGTCTTGATTCGCTTGACGCTGCTG | 8.17
19 | CAGCATAGGACTTCTTCCCTCAAGCAATTGATAACCGTCTTGATTCGCTTGACGCTGCTG | 8.19
20 | GGAAAAAGGCCCAGGGTAACGCCGGAAGTGGGCTTAGTCTTGATTCGCTTGACGCTGCTG | 10.7
21 | CGGAAGTGTCGTAAACGTCAGATATCCGGTTCTTCTGTCTTGATTCGCTTGACGCTGCTG | 11.6
22 | CGGAAGTGTCGTAAACGTCGGATATTCGGTTCTTCTGTCTTGATTCGCTTGACGCTGCTG | 8.55
23 | CGGAAGTGTCGTACACGTCGGATATCCGGTTCTTCTGTCTTGATTCGCTTGACGCTGCTG | 11.6
24 | TCCGACTACCAGCTCCACCCACTTCAGGCCTTGTAGGTCTTGATTCGCTTGACGCTGCTG | 8.37
25 | TGTCGGGTAAGGGAATGTAGATCACGTAAATGAAAAGTCTTGATTCGCTTGACGCTGCTG | 8.16
26 | TACTGACTTATATATGCCAATGCACATGAATAGACCGTCTTGATTCGCTTGACGCTGCTG | 8.14

Row | Sequence | binding signal (log fluorescence intensity)
27 | TACTGACATATATATGCGAATGCACATGAATAGACCGTCTTGATTCGCTTGACGCTGCTG | 8.43
28 | GTTGCTGCGGTGCATACCCCACCGGATGTGACCCCGGTCTTGATTCGCTTGACGCTGCTG | 10.4
29 | TACTGACTTATATATGCGAATGCACATGAATAAACCGTCTTGATTCGCTTGACGCTGCTG | 8.06
30 | TAAAGGGAAGATGGTTGTGGTAGTTCCGGGTATTAAGTCTTGATTCGCTTGACGCTGCTG | 8.51
31 | GTGTATAGGATCCCATCCAACACACGTGCTAAAATGGTCTTGATTCGCTTGACGCTGCTG | 8.31
32 | CACAATTTTTACAGTAAGGTAGCACGCGTAACTCCTGTCTTGATTCGCTTGACGCTGCTG | 8.29
33 | TCGGGCTACCAGCTCCACCCACTTCAGGCCTTGTAGGTCTTGATTCGCTTGACGCTGCTG | 8.12
34 | TAAAGGGAAGACCGTTGTGGTAGTTCCGGGTATTAAGTCTTGATTCGCTTGACGCTGCTG | 8.5
35 | CACAATTTTTACAGTAATGTAGCACGCGTAAGTCCTGTCTTGATTCGCTTGACGCTGCTG | 8.25
36 | CACAATTTTCACAGTAATGTAGCACGCGTAACTCCTGTCTTGATTCGCTTGACGCTGCTG | 8.1
37 | GGAAAAAGGCCCAGGGTAACACCGGCAGTGGGCTTAGTCTTGATTCGCTTGACGCTGCTG | 8.37
38 | CTGGGACTTGACCCAACTCTGCAACGTGGGTCGTTTGTCTTGATTCGCTTGACGCTGCTG | 8.17
39 | TCCAGCTACCAGCTCCACCCACTTCAGGCCTTGTAGGTCTTGATTCGCTTGACGCTGCTG | 8.23
40 | TGTCGGGTAAGGGAATGTAGATCACGTGGATGAAAAGTCTTGATTCGCTTGACGCTGCTG | 8.11
41 | AAGCATAGGACTTCTTCCCTGAAGCAATTGATAACCGTCTTGATTCGCTTGACGCTGCTG | 8.04
42 | TACAGGGAAGACGGTTGTGGTAGTTCCGGGTATTAAGTCTTGATTCGCTTGACGCTGCTG | 8.45
43 | TGTCGGGTAAGGGAATGTAGATCACGTGAAGGAAAAGTCTTGATTCGCTTGACGCTGCTG | 8.26
44 | TGTCGTGTAAGGGAATGTAGATCACGTGAATGAAAAGTCTTGATTCGCTTGACGCTGCTG | 8.37
45 | GGAAAAAGGCCCAGGGAAACACCGGAAGTGGGCTTAGTCTTGATTCGCTTGACGCTGCTG | 12.3
46 | CGGAAGTGTCGTAAACGTCGGATATCGGGTTCTTCTGTCTTGATTCGCTTGACGCTGCTG | 8.65
47 | GTGTATAGGATCCCATCCTACACACGTGTTAAAATGGTCTTGATTCGCTTGACGCTGCTG | 8.21
48 | CTGGGACTTGACCCAACTCTGCCACGGGGGTCGTTTGTCTTGATTCGCTTGACGCTGCTG | 8.24
49 | CTGGGACTTGACCCAACTCTGCCACGTGGGTCGATTGTCTTGATTCGCTTGACGCTGCTG | 8.33
50 | GATAAATTTCTGCCCTTATTCGCACGTGCCATAACAGTCTTGATTCGCTTGACGCTGCTG | 8.15
51 | GGAAAAAGGCCCAAGGTAACACCGGAAGTGGGCTTAGTCTTGATTCGCTTGACGCTGCTG | 12.1
52 | TACTGGCTTATATATGCGAATGCACATGAATAGACCGTCTTGATTCGCTTGACGCTGCTG | 8.27

Reference: publication PMC6602471
